The other results are listed elsewhere or left out.
T1: UNK ZnF1-3 (human, UniProt Q9C0B0 31-174)
T1 sequence: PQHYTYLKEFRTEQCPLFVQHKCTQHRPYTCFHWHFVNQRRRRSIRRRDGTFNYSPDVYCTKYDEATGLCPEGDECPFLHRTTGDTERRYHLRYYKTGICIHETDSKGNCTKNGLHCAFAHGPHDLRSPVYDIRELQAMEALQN

B1: chr1:25687284:25687285:+_ENSG00000183726_ENST00000374358|hu_hu|FALSE|FALSE (ssRNA)
RNA: GGGAGUUCUACAGUCCGACGAUCUCGUGAUUUUAGUAUUACACAACUUUAAGCUGAGACUACACUCAGAAAUAAGUUUAGAAAAUGGCAUUACAAAAGGUUGGGAGUGAGCAGUAAAAAAACAAACAAACCCAUGCAGGGCUGCAACAGAGGAUUGAGCAUCA
B2: chr12:86369911:86369912:+_ENSMUSG00000021244_ENSMUST00000021670|mus_hu|FALSE|FALSE (ssRNA)
RNA: GGGAGUUCUACAGUCCGACGAUCAAAAGCUGGUUUGGGGCCUUUCCACUGUGGUCCACUCUGUCGAGGACUUAGGGAUGUACUGGGGGUAAUAUAAAAUUGAGAUGCUGGCCCCCGGGGAAUCAUUCCCCACUUGCUUUUAGUCAACAGAGGAUUGAGCAUCA
B3: 161332164_161332284_660_3pUTR_ENSG00000143252_ENST00000367975|human|control|control (ssRNA)
RNA: GGGAGUUCUACAGUCCGACGAUCAAACAGAAAGAUGGGUGAAUGUAAUAAUGUGUAGGAAGAUGAUGCUGGGAGCCUCCUUUCUUCACAUGGCUGCCAGCCCCAUAGAGGACAACACAGUAAGAACCAGGACAACCACUCCAGCAACAGAGGAUUGAGCAUCA
B4: chr18:35731649:35731650:+_ENSMUSG00000037236_ENSMUST00000166793|perfect_dup|FALSE|FALSE (ssRNA)
RNA: GGGAGUUCUACAGUCCGACGAUCCCCUACUGAGAGAUGACUGCUGGAAUGACUUGGACAUUGUAGAACUAGCUCUUGUCUAUUUUAUAGAUUAAAAAAAAAAAUUUUUUUAAAGACGGCCAAAAAGAAAGCUCAAACUAGAAACAACAGAGGAUUGAGCAUCA
B5: chr12:80258887:80258888:-_ENSMUSG00000021124_ENSMUST00000055262|mus_hu|FALSE|FALSE (ssRNA)
RNA: GGGAGUUCUACAGUCCGACGAUCGUUUACCAGUCUACUCUUGGUACGUUCUAACUGGUCUCGUUGUUCCCCCAGCUCUUCUAUGAUUUCUGAGCCAAUCUGGUCAGUCUCUGUGGCAAUCCGAUGAGAACGUUCAAUACUUUGCAACAGAGGAUUGAGCAUCA
B6: chr17:57760048:57760049:+_ENSG00000141367_ENST00000269122|hu_hu|FALSE|FALSE (ssRNA)
RNA: GGGAGUUCUACAGUCCGACGAUCUGCCUGAUAUUCACCCAGGUGAACCAGGGUAGAUGCCAAACGUCCAAAAUUGGAAACAUUAUUGUACAACAACUUAGCAGCAUCAUACAUUUUUUCAUCAUAACAACGGUCACCAACUUGCAACAGAGGAUUGAGCAUCA
B7: chr11:75570464:75570465:+_ENSMUSG00000020849_ENSMUST00000067664|perfect_dup|motif|central (ssRNA)
RNA: GGGAGUUCUACAGUCCGACGAUCACGGUCGGGGGAAUUAAGAAUUUCAUAGUAGAAUACGGAAAAGUUGAGAGCAAGACCGGAACGAAUGGGGUGCGUUGGAGGAAGUUCUGUCAUCGCAAUGUCACUAGCAGCUUUGUAAGCCAACAGAGGAUUGAGCAUCA
B8: chr4:175180916:175180917:-_ENSG00000164117_ENST00000503293|hu_mus|FALSE|FALSE (ssRNA)
RNA: GGGAGUUCUACAGUCCGACGAUCAUUAAAGGUGAGGCUUCCCUCAUCUAGCUGCAUAUACAAUUUUCUAAAAGAAAAUCCUAAAGGUGGGUUCUUAUUGUAUAUAGAGCAGUGACCCCAUGUAGAUUUACACAACCCUUGCCACAACAGAGGAUUGAGCAUCA
B9: chr8:103876086:103876087:-_ENSG00000155096_ENST00000347770|hu_mus|FALSE|FALSE (ssRNA)
RNA: GGGAGUUCUACAGUCCGACGAUCCAACGUGAGAUAACGGCCCAAAGAGUCGGGUAAAGCGUCUUCUCUUUUUCGGCGGAAUUUUUAAAGAGGGAUGUGGUUACCUUGAGCAGAAAUACCCAAGGCGGCCUGGGCCAUAGGCUGCAACAGAGGAUUGAGCAUCA
B10: chr10:33190432:33190433:-_ENSG00000150093_ENST00000302278|hu_mus|hu_hu_hu_mus_True|28_78 (ssRNA)
RNA: GGGAGUUCUACAGUCCGACGAUCUACAUUUUCCAAACCUGCAUGUGAAUAAAACCCUGGCAAUAUUGCCCCAAAACUACCCUACUGUGACUAAGAUGCUGCUGCUGUUGCAUUCAGGUUGCAAAAUCCGCCUGAGUAGGAUUCCAACAGAGGAUUGAGCAUCA
B11: chr4:76721835:76721836:+_ENSG00000138768_ENST00000264904|hu_mus|hu_hu_hu_mus_True|48_48 (ssRNA)
RNA: GGGAGUUCUACAGUCCGACGAUCGUUUGGCUGGGGUUUCUGAGACGCUCUGGAAUAUAACUCAUGUUUGCUAAUAAAUCCUAGUUUUCUAUGAAAUUUCUCUUUGCCAAUCCUCUUCUCUAUUAGUUGCUUUAGUUUCUCUUUCAACAGAGGAUUGAGCAUCA
B12: chr13:37614821:37614822:-_ENSG00000102710_ENST00000475892|hu_mus|FALSE|FALSE (ssRNA)
RNA: GGGAGUUCUACAGUCCGACGAUCACUUUGGUAACCAGGAGACUUCAUAUUACUGGACUGCCUAUAGUCACGUAUUUCUGCUAUCACACAUCCACAAUGAAAAAUAUUAACCUGUGAUUUUUCAAGGAGAUCCACCAAAAUAGGCAACAGAGGAUUGAGCAUCA
B13: chr2:179515052:179515053:+_ENSMUSG00000000305_ENSMUST00000000314|mus_hu|mus_mus_mus_hu_False|38_98 (ssRNA)
RNA: GGGAGUUCUACAGUCCGACGAUCGCUGUCCCAUGCAGUGACGGUAAACGCCACCUGCUCGGAGGGGACCUGCAGCUCCCGGGUGGCGAAGACUGUCCCAUCCGCCCCAACUUUGAAGUCCAUGCUGUUGGUCUCAUAUUGUGUCAACAGAGGAUUGAGCAUCA
B14: chr6:89793807:89793808:+_ENSG00000146278_ENST00000336032|hu_hu|motif|central (ssRNA)
RNA: GGGAGUUCUACAGUCCGACGAUCGCUUCCCAUCCAGUGACUAGGAGGCUUUGGAAGAACACUAGGAGAAGGUGGAUCACGGAACUUUGCCCCAGCAUAAUUUUCCUUUUGGCUCACUUCAGUUAGAAAUGCUGAUUUCUUCAACAACAGAGGAUUGAGCAUCA
B15: chr7:7679991:7679992:-_ENSG00000106399_ENST00000396682|hu_hu|hu_hu_hu_mus_False|1_48 (ssRNA)
RNA: GGGAGUUCUACAGUCCGACGAUCUGGGAUGAAUCUUUUCCAGCUUCCCCACGAAGCACACGGGCCGGUCGAUAUACUGUGGUAACAUGCCGGCGUUGACGCGCGCUUUGGGGAGCUGCAUUAUGUCCUCCAUGAUUAUGGUCCCAACAGAGGAUUGAGCAUCA
B16: 150433044_150433978_734_3pUTR_ENSMUSG00000029657_ENSMUST00000074846|mouse|control|control (ssRNA)
RNA: GGGAGUUCUACAGUCCGACGAUCCAACAGCCGUCAUGUCAUUCAUGAGCCGCAAGCAGUUCAAGCCCACAAUCUGCGCAGCAUCCAGCACAGACCUUCGCUCAGCAUCUGUGAAGAAGGAUGGGACUGAGAUGACACAGUCUGCAACAGAGGAUUGAGCAUCA
B17: chr16:56974071:56974072:+_ENSG00000051108_ENST00000439977|hu_hu|FALSE|FALSE (ssRNA)
RNA: GGGAGUUCUACAGUCCGACGAUCCAUGAGGAAUCUGCUCAGGGAGGAGUAGAAGUAGAGGAUACUGAGAAAAACAGAAAAUGUAGCUGCUGAAUAGGUCCAAUCCAACCAAUCUCGAUUUAUUUCAUCAUCUUCUUCCACAAUCAACAGAGGAUUGAGCAUCA
B18: chr18:52893488:52893489:-_ENSG00000196628_ENST00000354452|hu_hu|hu_hu_hu_mus_True|98_98 (ssRNA)
RNA: GGGAGUUCUACAGUCCGACGAUCUAUUUAGACCAUUUCAAUGGAUUUAUGGCAUUUACUCAGUGCUGAUAGGUGGAAAAACUACUUCAACAGGGAUUUUUUUUUUCCUUAAUACAUGCCAAGAUUGUGUGGCUGUCAAAACAGCAACAGAGGAUUGAGCAUCA
B19: chr17:40142368:40142369:-_ENSG00000168259_ENST00000588814|hu_hu|FALSE|FALSE (ssRNA)
RNA: GGGAGUUCUACAGUCCGACGAUCAUUCGUAGAAUGUCACUAGCCACAGACUGUGCUUCUGGAUAACGACCCAGCAUUGCUAAACAUUCUGCCUUGAGGAUUUUGAAGCGAUGGCAGGCAGGGGCAAAUUCUAGGGCACGGUCCCAACAGAGGAUUGAGCAUCA
B20: 216269352_216271054_3218_CDS_ENSG00000115414_ENST00000323926|human|control|control (ssRNA)
RNA: GGGAGUUCUACAGUCCGACGAUCCUGGAGGUUAGUGGGAGCAUCCAGUUUGGUUGUCUGUUGAGCAGUCAGAGGCUUGCUCUCCCUCCCAUGGCUCACUGCAAAGACUUUGAAGUAAUAGGUGACCCCAGGGGACAGCCCGGUCAACAGAGGAUUGAGCAUCA
B21: 145510590_145512498_2390_CDS_ENSG00000133706_ENST00000545646|human|control|control (ssRNA)
RNA: GGGAGUUCUACAGUCCGACGAUCAAAAAACCCUGUUUUCAAAGCUUCUUUAAACAUCAUCUUUUCAUAGUUUUGAUCUGUUUUUAUAAUUCCUGCAUUCAAUUCACUGGCAAAAACUCUAUCAUUGAAAGUGCUGGCAGGACCCAACAGAGGAUUGAGCAUCA
B22: chr13:91842754:91842755:+_ENSMUSG00000003992_ENSMUST00000004094|mus_mus|motif|central (ssRNA)
RNA: GGGAGUUCUACAGUCCGACGAUCCCCAAAAUAUGUGAGUACUGCUGAUUUCAUUAUUAUGGGCUGAAGUAUGCAGAAAGCGGACCUCUGGCAAGCAGCAUAUACAUCAAGAGGACAUGAAUGGGCCAACAGCCGUAGAAUGCACAACAGAGGAUUGAGCAUCA

molecular target: T1, UNK ZnF1-3; test: nsRBNS (natural sequence RNA bind-n-seq); RBNS binding buffer (assumed for nsRBNS): 25 mM Tris pH 7.5, 150 mM KCl, 3 mM MgCl2, 0.01% Triton X-100, 500 ug/ml BSA, 20 U/ml SUPERase-In, 4 C; UNK is unkempt and MSI1 is Musashi-1; names of the RNAs are library labels; protein concentration not given here; high values mean tight binding

Binder	binding signal [enrichment R]
B1	0.704
B2	1.05
B3	1.59
B4	3.14
B5	0.504
B6	0.876
B7	1.82
B8	1.14
B9	0.946
B10	1.34
B11	0.57
B12	1.11
B13	0.848
B14	1.11
B15	0.342
B16	1.41
B17	1.69
B18	1.08
B19	1.17
B20	1.68
B21	0.848
B22	1.6
